Assay results published in article PMC5575285.
No constants are given. Whether binding was seen depends on the method and setting. In cells and extracts the contact can be indirect. Some results given as binding are weak or reduced against the parent protein; the word gives no strength. For part of these data: Tags and fused reporters may be left off the sequences shown.

Sequences of proteins named here, by UniProt entry; tags and fusion partners are left off.
UniProt P50750: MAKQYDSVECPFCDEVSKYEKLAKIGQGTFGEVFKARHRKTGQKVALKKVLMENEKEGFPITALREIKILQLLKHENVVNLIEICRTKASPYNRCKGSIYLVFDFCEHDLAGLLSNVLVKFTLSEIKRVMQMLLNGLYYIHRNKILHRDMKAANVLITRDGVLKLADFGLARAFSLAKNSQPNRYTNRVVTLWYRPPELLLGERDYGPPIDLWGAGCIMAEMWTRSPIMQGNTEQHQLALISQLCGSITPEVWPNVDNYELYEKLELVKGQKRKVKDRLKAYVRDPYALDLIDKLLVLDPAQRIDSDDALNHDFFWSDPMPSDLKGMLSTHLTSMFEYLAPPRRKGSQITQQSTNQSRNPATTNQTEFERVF
UniProt O94992: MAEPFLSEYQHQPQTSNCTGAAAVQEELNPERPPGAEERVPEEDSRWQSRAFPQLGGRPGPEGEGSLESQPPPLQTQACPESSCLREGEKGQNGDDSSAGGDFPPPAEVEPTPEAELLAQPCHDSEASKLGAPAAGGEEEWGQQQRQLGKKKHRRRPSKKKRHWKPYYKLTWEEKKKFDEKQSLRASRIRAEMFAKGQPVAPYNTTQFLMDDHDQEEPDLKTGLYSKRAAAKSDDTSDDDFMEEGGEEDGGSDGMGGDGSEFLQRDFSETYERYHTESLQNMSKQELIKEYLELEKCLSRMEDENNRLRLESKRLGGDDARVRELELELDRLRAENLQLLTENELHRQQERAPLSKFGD
UniProt O60583: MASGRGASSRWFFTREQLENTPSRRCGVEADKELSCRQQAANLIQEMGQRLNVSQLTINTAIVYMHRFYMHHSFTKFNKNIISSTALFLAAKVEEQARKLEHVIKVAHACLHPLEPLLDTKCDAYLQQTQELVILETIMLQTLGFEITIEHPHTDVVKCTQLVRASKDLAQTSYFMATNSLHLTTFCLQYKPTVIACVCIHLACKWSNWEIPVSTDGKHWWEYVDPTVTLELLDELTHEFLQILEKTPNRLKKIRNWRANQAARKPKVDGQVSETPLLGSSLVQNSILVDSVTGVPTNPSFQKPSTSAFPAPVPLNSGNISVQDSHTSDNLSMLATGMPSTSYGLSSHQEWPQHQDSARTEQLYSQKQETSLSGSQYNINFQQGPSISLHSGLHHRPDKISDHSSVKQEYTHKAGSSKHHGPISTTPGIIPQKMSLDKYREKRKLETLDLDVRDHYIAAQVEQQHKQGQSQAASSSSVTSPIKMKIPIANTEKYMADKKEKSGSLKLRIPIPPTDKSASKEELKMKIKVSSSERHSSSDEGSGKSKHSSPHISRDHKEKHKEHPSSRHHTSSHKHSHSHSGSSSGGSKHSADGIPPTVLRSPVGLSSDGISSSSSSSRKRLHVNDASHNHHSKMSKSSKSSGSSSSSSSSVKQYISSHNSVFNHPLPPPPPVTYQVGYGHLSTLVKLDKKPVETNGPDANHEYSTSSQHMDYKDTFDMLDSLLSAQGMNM
UniProt P49336: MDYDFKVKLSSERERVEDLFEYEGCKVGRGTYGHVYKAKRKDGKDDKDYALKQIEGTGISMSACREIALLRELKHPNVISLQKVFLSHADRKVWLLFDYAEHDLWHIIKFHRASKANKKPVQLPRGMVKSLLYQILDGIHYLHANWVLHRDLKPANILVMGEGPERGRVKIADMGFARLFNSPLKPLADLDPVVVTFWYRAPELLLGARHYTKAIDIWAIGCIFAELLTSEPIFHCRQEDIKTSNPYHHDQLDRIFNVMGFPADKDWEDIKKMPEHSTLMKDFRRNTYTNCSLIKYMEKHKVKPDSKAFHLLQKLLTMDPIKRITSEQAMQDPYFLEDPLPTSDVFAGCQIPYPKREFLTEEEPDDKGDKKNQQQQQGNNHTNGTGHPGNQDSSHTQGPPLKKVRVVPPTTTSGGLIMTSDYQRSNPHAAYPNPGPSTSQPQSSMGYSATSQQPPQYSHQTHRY
UniProt Q15291: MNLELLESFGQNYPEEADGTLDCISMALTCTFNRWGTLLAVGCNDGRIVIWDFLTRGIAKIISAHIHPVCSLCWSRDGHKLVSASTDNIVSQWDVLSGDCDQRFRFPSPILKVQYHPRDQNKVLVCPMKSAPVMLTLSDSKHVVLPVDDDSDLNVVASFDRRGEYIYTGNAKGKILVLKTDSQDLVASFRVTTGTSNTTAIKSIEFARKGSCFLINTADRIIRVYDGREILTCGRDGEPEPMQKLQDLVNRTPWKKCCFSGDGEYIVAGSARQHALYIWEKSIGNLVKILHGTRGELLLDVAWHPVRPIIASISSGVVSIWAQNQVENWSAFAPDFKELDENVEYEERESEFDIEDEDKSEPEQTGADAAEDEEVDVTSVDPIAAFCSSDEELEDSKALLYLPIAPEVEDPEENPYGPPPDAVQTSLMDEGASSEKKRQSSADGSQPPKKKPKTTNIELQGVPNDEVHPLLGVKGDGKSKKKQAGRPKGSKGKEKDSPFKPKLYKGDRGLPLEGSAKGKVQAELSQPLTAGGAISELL
UniProt O96028: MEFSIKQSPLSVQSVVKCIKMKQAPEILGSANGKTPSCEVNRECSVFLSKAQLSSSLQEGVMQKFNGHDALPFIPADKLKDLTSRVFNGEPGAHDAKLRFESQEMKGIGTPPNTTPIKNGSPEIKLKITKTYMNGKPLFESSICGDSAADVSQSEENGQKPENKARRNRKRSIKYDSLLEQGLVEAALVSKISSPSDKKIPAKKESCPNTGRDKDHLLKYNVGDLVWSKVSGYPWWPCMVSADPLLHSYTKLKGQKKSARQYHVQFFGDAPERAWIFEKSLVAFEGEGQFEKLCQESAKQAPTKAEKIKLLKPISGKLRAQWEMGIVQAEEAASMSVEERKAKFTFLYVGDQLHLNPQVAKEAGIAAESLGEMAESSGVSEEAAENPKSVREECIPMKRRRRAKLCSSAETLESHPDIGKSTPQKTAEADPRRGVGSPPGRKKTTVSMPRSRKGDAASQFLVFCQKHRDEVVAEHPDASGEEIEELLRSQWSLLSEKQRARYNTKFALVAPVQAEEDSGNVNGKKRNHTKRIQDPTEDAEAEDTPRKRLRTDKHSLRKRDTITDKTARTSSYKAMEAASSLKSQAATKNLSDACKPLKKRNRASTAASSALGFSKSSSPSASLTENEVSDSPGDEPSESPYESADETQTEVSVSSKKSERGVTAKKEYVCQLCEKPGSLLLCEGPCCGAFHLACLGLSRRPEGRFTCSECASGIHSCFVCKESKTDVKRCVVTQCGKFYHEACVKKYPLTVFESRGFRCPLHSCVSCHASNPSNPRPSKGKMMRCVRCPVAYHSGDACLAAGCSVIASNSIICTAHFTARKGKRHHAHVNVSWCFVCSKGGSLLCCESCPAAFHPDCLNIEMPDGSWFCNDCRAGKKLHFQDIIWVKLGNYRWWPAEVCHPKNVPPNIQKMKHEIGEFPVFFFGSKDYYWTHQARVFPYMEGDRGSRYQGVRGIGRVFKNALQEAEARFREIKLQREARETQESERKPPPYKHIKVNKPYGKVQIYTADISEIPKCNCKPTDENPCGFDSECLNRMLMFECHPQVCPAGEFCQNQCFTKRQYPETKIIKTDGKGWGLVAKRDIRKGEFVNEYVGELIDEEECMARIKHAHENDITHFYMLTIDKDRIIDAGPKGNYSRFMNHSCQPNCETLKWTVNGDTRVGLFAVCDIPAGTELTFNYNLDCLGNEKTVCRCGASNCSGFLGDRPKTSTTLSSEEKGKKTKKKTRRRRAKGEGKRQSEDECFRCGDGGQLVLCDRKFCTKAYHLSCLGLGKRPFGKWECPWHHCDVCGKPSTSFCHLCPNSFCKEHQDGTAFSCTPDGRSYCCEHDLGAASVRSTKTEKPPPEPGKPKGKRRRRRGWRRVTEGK

B1: AFF4 (endogenous, HUVEC) (protein, UniProt Q9UHB7 1-1163)
chain: MNREDRNVLRMKERERRNQEIQQGEDAFPPSSPLFAEPYKVTSKEDKLSSRIQSMLGNYDEMKDFIGDRSIPKLVAIPKPTVPPSADEKSNPNFFEQRHGGSHQSSKWTPVGPAPSTSQSQKRSSGLQSGHSSQRTSAGSSSGTNSSGQRHDRESYNNSGSSSRKKGQHGSEHSKSRSSSPGKPQAVSSLNSSHSRSHGNDHHSKEHQRSKSPRDPDANWDSPSRVPFSSGQHSTQSFPPSLMSKSNSMLQKPTAYVRPMDGQESMEPKLSSEHYSSQSHGNSMTELKPSSKAHLTKLKIPSQPLDASASGDVSCVDEILKEMTHSWPPPLTAIHTPCKTEPSKFPFPTKESQQSNFGTGEQKRYNPSKTSNGHQSKSMLKDDLKLSSSEDSDGEQDCDKTMPRSTPGSNSEPSHHNSEGADNSRDDSSSHSGSESSSGSDSESESSSSDSEANEPSQSASPEPEPPPTNKWQLDNWLNKVNPHKVSPASSVDSNIPSSQGYKKEGREQGTGNSYTDTSGPKETSSATPGRDSKTIQKGSESGRGRQKSPAQSDSTTQRRTVGKKQPKKAEKAAAEEPRGGLKIESETPVDLASSMPSSRHKAATKGSRKPNIKKESKSSPRPTAEKKKYKSTSKSSQKSREIIETDTSSSDSDESESLPPSSQTPKYPESNRTPVKPSSVEEEDSFFRQRMFSPMEEKELLSPLSEPDDRYPLIVKIDLNLLTRIPGKPYKETEPPKGEKKNVPEKHTREAQKQASEKVSNKGKRKHKNEDDNRASESKKPKTEDKNSAGHKPSSNRESSKQSAAKEKDLLPSPAGPVPSKDPKTEHGSRKRTISQSSSLKSSSNSNKETSGSSKNSSSTSKQKKTEGKTSSSSKEVKEKAPSSSSNCPPSAPTLDSSKPRRTKLVFDDRNYSADHYLQEAKKLKHNADALSDRFEKAVYYLDAVVSFIECGNALEKNAQESKSPFPMYSETVDLIKYTMKLKNYLAPDATAADKRLTVLCLRCESLLYLRLFKLKKENALKYSKTLTEHLKNSYNNSQAPSPGLGSKAVGMPSPVSPKLSPGNSGNYSSGASSASASGSSVTIPQKIHQMAASYVQVTSNFLYATEIWDQAEQLSKEQKEFFAELDKVMGPLIFNASIMTDLVRYTRQGLHWLRQDAKLIS
B2: LARP7 (endogenous, HUVEC) (protein, UniProt Q4G0J3 1-582)
chain: METESGNQEKVMEEESTEKKKEVEKKKRSRVKQVLADIAKQVDFWFGDANLHKDRFLREQIEKSRDGYVDISLLVSFNKMKKLTTDGKLIARALRSSAVVELDLEGTRIRRKKPLGERPKDEDERTVYVELLPKNVNHSWIERVFGKCGNVVYISIPHYKSTGDPKGFAFVEFETKEQAAKAIEFLNNPPEEAPRKPGIFPKTVKNKPIPALRVVEEKKKKKKKKGRMKKEDNIQAKEENMDTSNTSISKMKRSRPTSEGSDIESTEPQKQCSKKKKKRDRVEASSLPEVRTGKRKRSSSEDAESLAPRSKVKKIIQKDIIKEASEASKENRDIEISTEEEKDTGDLKDSSLLKTKRKHKKKHKERHKMGEEVIPLRVLSKSEWMDLKKEYLALQKASMASLKKTISQIKSESEMETDSGVPQNTGMKNEKTANREECRTQEKVNATGPQFVSGVIVKIISTEPLPGRKQVRDTLAAISEVLYVDLLEGDTECHARFKTPEDAQAVINAYTEINKKHCWKLEILSGDHEQRYWQKILVDRQAKLNQPREKKRGTEKLITKAEKIRLAKTQQASKHIRFSEYD

biological target: T1, ETS1 (endogenous, HUVEC) (human (endogenous in HUVEC)) (UniProt P14921); test: co-IP; HUVEC nuclear extract; endogenous ETS1 precipitated with specific antibody and Protein G Dynal beads; endogenous partners detected by immunoblot; also after VEGF for the indicated times, with or without ERK inhibitor PD598059
T1 sequence: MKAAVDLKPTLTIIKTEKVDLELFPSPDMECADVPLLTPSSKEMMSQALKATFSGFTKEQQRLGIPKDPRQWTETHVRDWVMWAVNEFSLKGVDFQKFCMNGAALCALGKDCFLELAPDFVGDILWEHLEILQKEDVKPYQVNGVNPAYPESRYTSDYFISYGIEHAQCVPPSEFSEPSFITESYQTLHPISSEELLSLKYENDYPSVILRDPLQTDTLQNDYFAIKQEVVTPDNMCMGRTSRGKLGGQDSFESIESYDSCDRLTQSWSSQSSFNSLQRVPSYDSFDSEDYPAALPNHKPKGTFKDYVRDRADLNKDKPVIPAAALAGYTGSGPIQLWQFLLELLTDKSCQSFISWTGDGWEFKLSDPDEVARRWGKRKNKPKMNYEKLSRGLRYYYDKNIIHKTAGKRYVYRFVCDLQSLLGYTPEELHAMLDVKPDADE

Molecule	binding
CDK9 (endogenous, HUVEC) (from UniProt P50750 1-372)	binds
HEXIM1 (endogenous, HUVEC) (from UniProt O94992 1-359)	no binding
B1	binds
B2	no binding

biological target: T2, Flag-ETS1 (UniProt P14921); test: co-IP; 293T cells co-transfected with expression constructs (with or without CBP); total protein in IP buffer (20 mM Tris-Cl pH 8, 150 mM NaCl, 1% NP-40, 1 mM EDTA, DNaseI, 10 mM sodium butyrate); FLAG-tagged ETS1 or ETS1 NT precipitated with M2 Flag antibody magnetic beads overnight at 4 °C; partners detected with HA or V5 antibodies
T2 sequence: T1 sequence

Molecule	binding
CCNT2 (tagged, 293T) (from UniProt O60583 1-730)	binds
CDK8 (tagged, 293T) (from UniProt P49336 1-464)	no binding
CDK9 (tagged, 293T) (from UniProt P50750 1-372)	binds
RbBP5 (tagged, 293T) (from UniProt Q15291 1-538)	no binding
WHSC1 (tagged, 293T) (from UniProt O96028 1-1365)	no binding
